# Results taken from article PMC11996680.
# These are yes or no findings as the source states them, for the method shown. Some entries that bind do so weakly or less than the wild type. For some assays here: Sequences can lack the tags named with a protein.
# T1: full-length HOOK2 (human), Q96ED9
# T1 chain: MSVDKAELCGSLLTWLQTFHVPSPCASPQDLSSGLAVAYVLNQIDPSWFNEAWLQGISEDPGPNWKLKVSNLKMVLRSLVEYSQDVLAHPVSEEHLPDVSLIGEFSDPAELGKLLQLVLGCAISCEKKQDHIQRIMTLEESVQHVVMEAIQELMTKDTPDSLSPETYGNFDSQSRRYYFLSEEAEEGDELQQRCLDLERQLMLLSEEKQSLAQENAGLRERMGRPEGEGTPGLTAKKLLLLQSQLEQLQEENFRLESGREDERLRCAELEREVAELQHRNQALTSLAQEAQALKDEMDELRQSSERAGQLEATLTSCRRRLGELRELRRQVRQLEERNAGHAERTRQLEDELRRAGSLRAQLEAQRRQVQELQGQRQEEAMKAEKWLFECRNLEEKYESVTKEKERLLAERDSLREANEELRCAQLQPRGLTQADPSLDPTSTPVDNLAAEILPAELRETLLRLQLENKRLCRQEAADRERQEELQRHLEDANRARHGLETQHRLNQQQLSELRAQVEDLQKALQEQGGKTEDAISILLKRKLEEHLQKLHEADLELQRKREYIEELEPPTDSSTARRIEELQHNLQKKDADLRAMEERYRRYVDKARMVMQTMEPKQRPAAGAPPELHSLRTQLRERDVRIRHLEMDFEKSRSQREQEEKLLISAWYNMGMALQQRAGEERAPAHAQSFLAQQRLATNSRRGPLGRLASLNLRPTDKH
# T2: FTS–HOOK3(571–718)–FHIP1B complex (human) (UniProt Q86VS8+Q9H8T0+Q8N612)
# T2 sequence 1: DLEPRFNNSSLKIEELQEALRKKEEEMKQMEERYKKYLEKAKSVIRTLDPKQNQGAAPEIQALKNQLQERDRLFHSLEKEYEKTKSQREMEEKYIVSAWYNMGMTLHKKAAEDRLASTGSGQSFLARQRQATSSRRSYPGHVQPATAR
# T2 sequence 2: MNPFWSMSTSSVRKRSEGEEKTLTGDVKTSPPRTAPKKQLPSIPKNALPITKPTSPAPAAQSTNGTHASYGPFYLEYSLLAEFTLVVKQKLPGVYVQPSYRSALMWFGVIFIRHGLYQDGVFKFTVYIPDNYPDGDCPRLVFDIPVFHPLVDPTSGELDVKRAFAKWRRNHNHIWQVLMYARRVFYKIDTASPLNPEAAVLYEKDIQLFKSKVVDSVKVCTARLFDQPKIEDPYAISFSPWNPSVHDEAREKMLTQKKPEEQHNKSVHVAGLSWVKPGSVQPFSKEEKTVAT
# T2 sequence 3: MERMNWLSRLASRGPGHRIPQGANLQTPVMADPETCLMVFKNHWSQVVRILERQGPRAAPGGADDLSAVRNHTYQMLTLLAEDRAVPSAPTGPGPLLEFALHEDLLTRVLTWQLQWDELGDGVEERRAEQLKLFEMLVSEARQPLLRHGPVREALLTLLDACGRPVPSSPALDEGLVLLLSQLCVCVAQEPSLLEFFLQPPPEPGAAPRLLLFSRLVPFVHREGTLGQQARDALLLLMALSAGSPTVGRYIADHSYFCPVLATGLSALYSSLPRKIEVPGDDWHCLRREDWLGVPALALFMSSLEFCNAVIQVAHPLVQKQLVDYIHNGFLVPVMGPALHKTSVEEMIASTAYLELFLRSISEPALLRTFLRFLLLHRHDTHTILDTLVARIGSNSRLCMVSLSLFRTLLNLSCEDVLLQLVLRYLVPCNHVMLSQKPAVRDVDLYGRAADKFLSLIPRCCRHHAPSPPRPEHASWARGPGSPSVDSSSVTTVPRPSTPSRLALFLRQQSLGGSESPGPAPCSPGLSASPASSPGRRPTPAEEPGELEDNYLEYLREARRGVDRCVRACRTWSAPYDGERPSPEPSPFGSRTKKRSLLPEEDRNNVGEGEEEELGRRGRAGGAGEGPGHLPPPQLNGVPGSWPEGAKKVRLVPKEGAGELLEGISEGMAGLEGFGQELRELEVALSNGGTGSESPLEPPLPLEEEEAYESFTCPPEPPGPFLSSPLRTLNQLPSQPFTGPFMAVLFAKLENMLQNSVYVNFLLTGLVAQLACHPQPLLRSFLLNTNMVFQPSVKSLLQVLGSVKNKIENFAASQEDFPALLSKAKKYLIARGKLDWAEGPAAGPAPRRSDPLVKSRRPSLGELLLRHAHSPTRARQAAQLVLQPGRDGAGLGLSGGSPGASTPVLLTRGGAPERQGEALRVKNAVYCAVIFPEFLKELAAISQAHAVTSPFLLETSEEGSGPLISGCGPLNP
# T3: FTS–HOOK3(629–718)–FHIP1B complex (human) (UniProt Q86VS8+Q9H8T0+Q8N612)
# T3 sequence 1: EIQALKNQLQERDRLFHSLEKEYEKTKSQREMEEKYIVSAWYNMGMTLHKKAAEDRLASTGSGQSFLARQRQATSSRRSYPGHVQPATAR
# T3 sequence 2: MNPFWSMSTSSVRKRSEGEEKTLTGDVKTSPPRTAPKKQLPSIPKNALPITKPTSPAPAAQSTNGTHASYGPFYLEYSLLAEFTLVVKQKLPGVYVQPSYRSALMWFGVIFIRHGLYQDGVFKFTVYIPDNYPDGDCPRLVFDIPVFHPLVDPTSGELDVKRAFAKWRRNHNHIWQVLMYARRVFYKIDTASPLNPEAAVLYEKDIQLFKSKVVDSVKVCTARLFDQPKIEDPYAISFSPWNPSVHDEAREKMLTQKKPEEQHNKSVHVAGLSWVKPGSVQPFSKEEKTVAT
# T3 sequence 3: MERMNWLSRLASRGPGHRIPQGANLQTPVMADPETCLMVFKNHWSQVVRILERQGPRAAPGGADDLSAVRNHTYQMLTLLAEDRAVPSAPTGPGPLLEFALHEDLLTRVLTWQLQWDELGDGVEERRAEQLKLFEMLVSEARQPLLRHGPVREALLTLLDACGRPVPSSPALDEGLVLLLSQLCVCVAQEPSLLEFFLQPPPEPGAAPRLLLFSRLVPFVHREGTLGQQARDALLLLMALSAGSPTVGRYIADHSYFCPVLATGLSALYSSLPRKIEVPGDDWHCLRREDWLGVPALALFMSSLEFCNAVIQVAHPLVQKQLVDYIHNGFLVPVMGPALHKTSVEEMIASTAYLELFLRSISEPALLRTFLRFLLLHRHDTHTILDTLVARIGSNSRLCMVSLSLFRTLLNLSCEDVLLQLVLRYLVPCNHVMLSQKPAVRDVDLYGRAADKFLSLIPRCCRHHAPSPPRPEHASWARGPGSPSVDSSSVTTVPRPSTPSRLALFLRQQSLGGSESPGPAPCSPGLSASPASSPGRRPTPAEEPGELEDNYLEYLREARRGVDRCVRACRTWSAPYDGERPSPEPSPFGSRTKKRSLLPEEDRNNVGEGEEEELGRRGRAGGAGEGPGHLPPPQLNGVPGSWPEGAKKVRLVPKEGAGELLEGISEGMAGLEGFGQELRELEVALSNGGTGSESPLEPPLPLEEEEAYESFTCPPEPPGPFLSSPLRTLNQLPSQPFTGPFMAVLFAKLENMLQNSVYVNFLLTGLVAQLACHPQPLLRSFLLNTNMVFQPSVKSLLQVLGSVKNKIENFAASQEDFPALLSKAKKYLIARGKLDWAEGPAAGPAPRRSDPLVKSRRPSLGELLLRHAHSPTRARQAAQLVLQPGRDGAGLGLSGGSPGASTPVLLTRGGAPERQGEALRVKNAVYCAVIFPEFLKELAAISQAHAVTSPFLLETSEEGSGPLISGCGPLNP
# Assays:
# [1] = biological target: T1, full-length HOOK2 (human), Q96ED9; assay: co-expression and co-purification; strep-HOOK2 or strep-HOOK3 (full length or C-terminal fragment) co-expressed with FTS and FHIP1B or FHIP2A in Sf9; Strep-Tactin Sepharose, PreScission cleavage, Superose 6; SDS-PAGE; complexes of the fragments also seen in cryo-EM 2D class averages; settings: remark: other sources report otherwise
# [2] = biological target: T2, FTS–HOOK3(571–718)–FHIP1B complex (human); assay: cross-linking; cross-linking mass spectrometry; 10 mM EDC or 5 mM DSSO, room temperature, 60 min; full-length FHF or FH^571-718F with KIF1C stalk 674-922; both purified
# [3] = biological target: full-length FTS–HOOK3–FHIP1B complex (human) (UniProt Q86VS8+Q9H8T0+Q8N612); assay: as above
# [4] = biological target: FTS–HOOK3(451–718)–FHIP1B complex (human) (UniProt Q86VS8+Q9H8T0+Q8N612); assay: cryo-EM structure; FH^451–718F with GST-KIF1C stalk 674–922; 4.8 Å, low resolution at the KIF1C stalk density; no atomic model; both purified
# [5] = biological target: T3, FTS–HOOK3(629–718)–FHIP1B complex (human); assay: SEC; typically 5 µM FHF construct and 10 µM KIF1C stalk construct in GF150 (25 mM HEPES pH 7.2, 150 mM KCl, 1 mM MgCl2, 1 mM DTT); Superose 6 Increase 3.2/300; both purified
binder,measurement,setting,value
"FHIP1B, Q8N612 1-972 (protein) MERMNWLSRLASRGPGHRIPQGANLQTPVMADPETCLMVFKNHWSQVVRILERQGPRAAPGGADDLSAVRNHTYQMLTLLAEDRAVPSAPTGPGPLLEFALHEDLLTRVLTWQLQWDELGDGVEERRAEQLKLFEMLVSEARQPLLRHGPVREALLTLLDACGRPVPSSPALDEGLVLLLSQLCVCVAQEPSLLEFFLQPPPEPGAAPRLLLFSRLVPFVHREGTLGQQARDALLLLMALSAGSPTVGRYIADHSYFCPVLATGLSALYSSLPRKIEVPGDDWHCLRREDWLGVPALALFMSSLEFCNAVIQVAHPLVQKQLVDYIHNGFLVPVMGPALHKTSVEEMIASTAYLELFLRSISEPALLRTFLRFLLLHRHDTHTILDTLVARIGSNSRLCMVSLSLFRTLLNLSCEDVLLQLVLRYLVPCNHVMLSQKPAVRDVDLYGRAADKFLSLIPRCCRHHAPSPPRPEHASWARGPGSPSVDSSSVTTVPRPSTPSRLALFLRQQSLGGSESPGPAPCSPGLSASPASSPGRRPTPAEEPGELEDNYLEYLREARRGVDRCVRACRTWSAPYDGERPSPEPSPFGSRTKKRSLLPEEDRNNVGEGEEEELGRRGRAGGAGEGPGHLPPPQLNGVPGSWPEGAKKVRLVPKEGAGELLEGISEGMAGLEGFGQELRELEVALSNGGTGSESPLEPPLPLEEEEAYESFTCPPEPPGPFLSSPLRTLNQLPSQPFTGPFMAVLFAKLENMLQNSVYVNFLLTGLVAQLACHPQPLLRSFLLNTNMVFQPSVKSLLQVLGSVKNKIENFAASQEDFPALLSKAKKYLIARGKLDWAEGPAAGPAPRRSDPLVKSRRPSLGELLLRHAHSPTRARQAAQLVLQPGRDGAGLGLSGGSPGASTPVLLTRGGAPERQGEALRVKNAVYCAVIFPEFLKELAAISQAHAVTSPFLLETSEEGSGPLISGCGPLNP",binding,[1],binds
"GST-KIF1C stalk 674-922 (domain or fragment, UniProt O43896 674-922) SDSGDDSDKRSCEESWRLISSLREQLPPTTVQTIVKRCGLPSSGKRRAPRRVYQIPQRRRLQGKDPRWATMADLKMQAVKEICYEVALADFRHGRAEIEALAALKMRELCRTYGKPDGPGDAWRAVARDVWDTVGEEEGGGAGSGGGSEEGARGAEVEDLRAHIDKLTGILQEVKLQNSSKDRELQALRDRMLRMERVIPLAQDHEDENEEGGEVPWAPPEGSEAAEEAAPSDRMPSARPPSPPLSSWE",binding,[2],binds
same,binding,[3],binds
same,binding,[4],binds
"GST–KIF1C stalk SGD construct (domain or fragment, UniProt O43896 720-841) RAPRRVYQIPQRRRLQGKDPRWATMADLKMQAVKEICYEVALADFRHGRAEIEALAALKMRELCRTYGKPDGPGDAWRAVARDVWDTVGEEEGGGAGSGGGSEEGARGAEVEDLRAHIDKLT",binding,[5],no binding
